Experimental data published in article PMC12069340 (Frontiers in Cellular and Infection Microbiology, 2025).
Where a name gives a salt, the structure may show the parent alone. Read-outs that look alike come from different tables or passages of the source.

How the values were obtained:
[1] = test system: influenza virus A/PuertoRico/8/1934 (H1N1); assay: organism not typed; conditions: MDCK, read-out: IC50 (µM) MDCK
influenza virus PR8 = format: cell-based, influenza A virus
[2] = test system: influenza virus A/PuertoRico/8/1934 (H1N1); assay: organism not typed; format: cell-based; conditions: A549, read-out: IC50 (µM) A549
[3] = test system: influenza virus A/PuertoRico/8/1934 (H1N1)
[4] = test system: influenza virus A/PuertoRico/8/1934

## O=C(c1ccc(OCCCc2cnc[nH]2)cc1)C1CC1 [Ciproxifan]
[1]
  IC50: 59.4 µM
Influenza virus PR8
  attachment of influenza virus to A549 cells: did not affect the attachment
[2]
  IC50: 6.3 µM
[3]
  SI MDCK: >7

## CC(COc1ccccc1)NC(C)C(O)c1ccc(O)cc1 (stereo not shown) [Isoxsuprine, Isoxsuprine hydrochloride]
[1]
  IC50: 36.3 µM
Influenza virus PR8
  attachment of influenza virus to A549 cells: did not affect the attachment
[2]
  IC50: 4.9 µM
[3]
  SI MDCK: >11

## CCCN(CCc1cccs1)[C@H]1CCc2c(O)cccc2C1 [Rotigotine]
[1]
  IC50: 8.1 µM
Influenza virus PR8
  attachment of influenza virus to A549 cells: did not affect the attachment
[2]
  IC50: 14.7 µM
[3]
  SI MDCK: 11

## Tannic acid
[4]
  reduction of influenza virus infectivity by direct treatment: substantial decrease in viral infectivity of over one log unit
